Test results taken from the supplement of paper PMC3334620.
The full ranking holds about 33,000 sequences; the median of “E-score (-0.5 to 0.5)” is about -0.017, and the highest 2% start at about 0.3. The list shows a part of the results.

target: T1, Sut1 (UniProt P53032); assay: PBM E-score (8-mer binding enrichment) (E-score (-0.5 to 0.5)); higher = stronger / more preferred TF binding; most listed sequences are background and not binding sites; settings: protein concentration: 200 nM; construct: GST-full length
T1 sequence: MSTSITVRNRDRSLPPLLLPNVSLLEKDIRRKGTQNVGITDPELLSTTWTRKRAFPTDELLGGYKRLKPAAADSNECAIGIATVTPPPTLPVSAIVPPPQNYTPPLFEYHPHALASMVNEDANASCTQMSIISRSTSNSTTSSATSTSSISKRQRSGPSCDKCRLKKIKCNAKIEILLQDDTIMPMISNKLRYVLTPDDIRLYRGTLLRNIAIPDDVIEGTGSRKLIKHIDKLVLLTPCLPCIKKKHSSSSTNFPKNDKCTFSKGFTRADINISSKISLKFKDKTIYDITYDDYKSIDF
Procedure, shortened: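 Yeast transcription factors carrying a GST tag, as full-length proteins or DNA-binding domains, were produced by PURExpress in vitro transcription/translation. About 100-200 nM protein was applied to universal all-10-mer Agilent arrays, double-stranded by primer extension on fresh or once-stripped slides. Bound protein was detected with fluorescent anti-GST, and scans were normalised with masliner. The Universal PBM Analysis Suite gave each ungapped eight-base word, pooled with its reverse complement, an E-score, a modified Wilcoxon-Mann-Whitney statistic.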

Sequence | PBM E-score
AAAGTGTG | -0.148
CCAACACC | 0.00941
GTCGTAAA | 0.0993
AGAACAAT | 0.109
CGTATAGC | 0.1
TAGCAATA | 0.181
ACCAAAGA | 0.204
ATTGGGAG | -0.119
CACTACTC | 0.117
ATGCACTG | -0.145
AATATTTA | 0.267
TCCACACA | 0.0789
AGATCGAC | -0.129
GGCATTGA | 0.0468
AAATTCGA | 0.141
GCCAAGGC | -0.29
CAGTGTCG | -0.0291
CTAAAAAG | 0.251
CCAAATGA | 0.209
GATCATTA | 0.159
CGAACGCC | -0.0644
AGCGGAAT | 0.0494
AGCTGGGC | -0.0645
GCAGTCAA | -0.234
AGTTACAG | 0.156

Sequence | PBM E-score
ACACGGTC | -0.137
CACGATAG | 0.0209
AATATTGC | 0.121
CCTGAATA | -0.0158
CACACAGC | -0.198
CCTTGTCA | -0.0563
AGCGCTCA | -0.0562
AAATGTGA | 0.119
AATGACGA | 0.117
AGATACTG | 0.0671
ACTCTCAC | -0.0416
AATTGCGT | 0.134
CATAATAA | 0.131
ACCGTATA | -0.0848
CAGAGGCA | -0.224
AAGCCGCT | 0.00481
ATAGAAAA | 0.175
AGACGGAT | 0.0639
GAACGCGA | -0.0883
CGAATTCG | 0.112
CGCGCACC | -0.0354
ATATGTAC | 0.167
AGAGCAGA | -0.0671
CGTCCAGA | -0.249
GCATATCC | -0.196

Sequence | PBM E-score
AGGCGTTA | 0.0291
CAATCCAA | 0.0981
ATCGGATC | -0.00393
CTCGCCGA | -0.072
AGTATAAT | 0.247
ACGTGTAC | 0.0149
TACTACCA | -0.103
CAAAGATA | 0.0622
GACTACTC | 0.0743
CCGTGCAG | 0.0321
CCGGACAC | 0.112
ATCTTGCA | 0.102
GAAGCACC | -0.1
CAGGAAGA | -0.164
ACGTCTGA | -0.00497
ACATAGAG | -0.117
ACGGACCA | 0.277
CTGACACC | 0.00875
ACAATGCT | -0.0335
CTCCTATA | -0.215
ATCATATA | 0.155
CCACAATC | -0.00875
AGTCCGGC | 0.467
TAAGGACA | -0.133
GCACTTAC | -0.0542

Sequence | PBM E-score
GAACTGAA | 0.115
CGTGCCTC | -0.122
GGCTTGCA | -0.0569
CGCTGACA | -0.0834
AGCCGAAA | 0.149
CTCCCGTA | -0.185
GTGCTAAC | 0.0604
AATTTACC | 0.143
TGGATTAA | 0.159
GGTAGAAC | -0.0775
GCCCCCAA | -0.255
ACATTGGT | 0.113
GAGGTGGC | -0.203
ACTATAAG | 0.141
AATGACTA | 0.149
AAGATGAT | 0.0993
CGACCGCA | -0.112
AGCTGTAG | 0.0192
ATGTGGGG | -0.203
CCTAGCAA | -0.172
ACGTGACT | -0.0877
TGGTTCAA | 0.00093
CCTCGCTC | -0.044
GACACGAC | -0.126
GATTCATA | 0.0408

Sequence | PBM E-score
CAAAGAGG | -0.109
CTAGGAGC | -0.306
CAATAGCC | -0.0517
AATCGACT | -0.205
GAGTTGCA | 0.032
CTCGAATA | -0.124
ATGCACCG | 0.0411
AAAGAATT | 0.12
CCGCACAA | -0.0899
AATCGTAG | 0.111
CGTCCCAC | -0.0159
ACACGCGC | -0.069
CTAAGGCA | -0.163
AAGGTAGA | 0.059
AGATTTAA | 0.00422
GTTGACAA | 0.0577
CTGCCCAA | -0.108
CACAGGTG | -0.162
AACTACCC | -0.211
ATACGTGC | -0.0324
TACAAGAA | 0.234
GTAAGCAC | -0.0334
CCGGGCTA | 0.0831
CTAGTCAC | -0.0858
CAGTGACC | -0.31

Sequence | PBM E-score
CCTGCAAA | -0.172
GCTACTGA | -0.00365
GAAAGAAA | 0.294
GTAGGGTA | 0.0553
AACGGTAA | -0.0227
ACTCCCGA | 0.103
GTCCAGAC | -0.365
AGCTATCA | -0.0476
AGTCTACG | -0.0914
CAGGGTAG | -0.233
AGCAACAC | -0.00322
GGTCCACC | -0.175
AGCAAAAC | 0.219
AATGATGC | 0.0894
AATCAGTG | -0.0732
AGTTTGGG | 0.129
AGCGGATC | 0.0459
ATTGACGG | 0.103
CGGTAGAA | -0.197
AACGTGAC | 0.0748
CGGATTGA | 0.0523
CCGTTAAG | -0.0615
TGCAATAA | 0.124
GATCAGCC | -0.25
AAATTATG | 0.175

Sequence | PBM E-score
CATGTCCC | -0.1
CGCATCTA | 0.108
ACCCGCTA | -0.21
CGACACCC | -0.0331
ATTCTGTA | 0.114
AGAAGTAA | 0.236
CTGCCATC | -0.0539
AAGTGGTC | 0.00377
GAGGTACC | -0.211
ACCTGGGA | -0.057
CAGTTTAA | 0.13
ATACTTAA | 0.188
TAATTCGA | 0.0785
AATGCAAC | 0.0416
CTTTTGGC | -0.0214
ATTTCAGC | 0.137
CTGACATC | 0.0186
ACATTAGT | -0.0431
GTAAGCAA | 0.111
CCGCAGTA | -0.0898
AATACTTA | 0.185
TACGAGGA | -0.0191
